# Assay results taken from ChEMBL document CHEMBL1201862, “PubChem BioAssay data set” (2004).
# Tested on: NCI-H322M
# Experiment: NCI tumour cell line growth inhibition, 48 h
row,SMILES,GI50
1,C(=N\c1ccc(-c2cc(-c3ccccc3)nc3ccc4ccccc4c23)cc1)/c1ccccc1,inactive: 16.9 µM
2,OC1(c2ccc(Cl)cc2)c2ccccc2C2=Nc3ccccc3CN21 (stereo unspecified),inactive: > 61.8 µM
3,Cn1c(=O)c2nc(CCS)[nH]c2n(C)c1=O,inactive: > 100 µM
4,COc1ccc2c(c1)[n+]([O-])c(/C(C)=N/NC(N)=S)c(C)[n+]2[O-],inactive: > 56 µM
5,O=S(=O)(O)c1ccc2cc(/N=N\c3cc(S(=O)(=O)O)c4cccnc4c3O)ccc2c1,inactive: > 100 µM
6,O=C(NCCc1ccccc1)c1c(O)nc2ccccc2c1O,inactive: > 100 µM
7,c1ccc(-c2cnc(-c3ccc(-c4ncc(-c5ccccc5)o4)cc3)o2)cc1,inactive: > 100 µM
8,O=[N+]([O-])c1ccc2nc(-c3ccccn3)c(-c3ccccn3)nc2c1,inactive: > 100 µM
9,O=C1NC(=O)C(c2c[nH]c3cc(Br)ccc23)=C1c1cnc[nH]1,inactive: 35.6 µM
10,CN(C)CCc1c2c(nc3ccccc13)C(=O)c1cccnc1C2=O,active: 0.238 µM
11,C(=N\CC/N=C/c1cccc2ccccc12)/c1cccc2ccccc12,inactive: > 100 µM
12,Cc1cc(S(=O)(=O)/N=C(\NN)NCC(=O)NN)c(S)cc1Cl,inactive: > 10 µM
13,COC(=O)C1=C(OC)[C@H]2C#C/C=C\C#C[C@@H]3Nc4c(cc(O)c5c4C(=O)c4ccccc4C5=O)[C@]24O[C@@]34[C@H]1C,active: < 0.0126 µM
14,O=C1c2c(ccc3c2CCC3)CC12Cc1ccccc1C2,inactive: 16.2 µM
15,CC(=O)c1ccc(NCc2cc(O)ccc2O)cc1,inactive: 22.8 µM
16,Cc1csc2c1C(=O)c1ccsc1C2=O,inactive: 2.16 µM
17,COc1ccc([N+](=O)[O-])c2c(NCCCN(C)C)ccnc12,inactive: 15.6 µM
18,CC(C)(C)NCc1cc(Nc2ccnc3cc(Cl)ccc23)cc(-c2ccc(Cl)cc2)c1O,inactive: 3.52 µM
19,N#Cc1c2c(c(Nc3cccc(C(F)(F)F)c3)n3c1nc1ccccc13)CCCC2,inactive: 14.6 µM
20,COc1nc2c(c(=O)n1C)N=C(c1ccc(Cl)cc1)CC(c1ccccc1)N2 (stereo unspecified),inactive: 30.4 µM
21,CCCCCCCC(=O)OC[C@@H](C[As](=O)(O)O)OC(=O)CCCCCCC,inactive: 13.8 µM
22,CN(C)c1ccc(/C=C/C(=O)CC(=O)/C=C/c2ccc(N(C)C)cc2)cc1,inactive: > 100 µM
23,Cc1ccc([N+](=O)[O-])cc1S(=O)(=O)Nc1ccc(C2=NOC(c3cccs3)C2)cc1 (stereo unspecified),inactive: 24.3 µM

row,SMILES,GI50
1,O=c1oc2ccc([N+](=O)[O-])cc2c(Nc2ccc3c(c2)S(=O)(=O)c2ccccc2O3)c1[N+](=O)[O-],inactive: 88.7 µM
2,O=C1C(N2CCNCC2)=C(Cl)C(=O)c2ncccc21,inactive: > 10 µM
3,CC(=O)/C(=C\c1ccc(Cl)c(Cl)c1)C(=O)C(C)CN(C)C (stereo unspecified),inactive: 4.48 µM
4,CN(C)CCCSc1nc2ccccc2[nH]1,inactive: > 100 µM
5,COC1C(=O)N(SC)C1c1ccccc1Cl (stereo unspecified),inactive: > 100 µM
6,CCC1=CCN(c2cc(C)ccn2)OC1c1ccccc1 (stereo unspecified),inactive: 61 µM
7,COc1cc(Nc2nc3cc(C(F)(F)F)ccc3nc2C(=O)O)cc(OC)c1OC,inactive: 37 µM
8,COC(=O)/C(=C1\OC(=O)C(c2ccc(Cl)cc2)=C1O)c1ccc(Cl)cc1,inactive: 31.8 µM
9,O=C(NC1C(=O)NNC1c1ccccc1Cl)c1ccccc1 (stereo unspecified),inactive: > 100 µM
10,O=[N+]([O-])C1=Cc2c(O)ccc(O)c2C2OC=CC12 (stereo unspecified),inactive: 28.1 µM
11,Clc1ccc(C2NN=C3c4ccccc4OCC32)cc1 (stereo unspecified),inactive: 6.05 µM
12,COc1cc(NC(C)=O)ccc1C(=O)NN1C(=O)/C(=C/c2ccco2)N=C1c1ccccc1,inactive: > 50 µM
13,Nc1nc(Cl)c2ncn(Cc3ccc(CCl)cc3)c2n1,inactive: 21.2 µM
14,CCOC(=O)C(=O)Nc1ccc(C)c(C)c1,inactive: > 100 µM
15,O=C1/C(=C/c2ccccc2S)N=C(c2ccccc2)N1c1ccc2c(c1)Sc1cc(N3C(=O)/C(=C/c4ccccc4S)N=C3c3ccccc3)ccc1N2,inactive: 17.9 µM
16,COc1ccc(NC(C)=O)cc1N1C(=O)/C(=C\c2cc(OC)c(OC)c(OC)c2)S(=O)(=O)C1c1ccccc1 (stereo unspecified),inactive: > 100 µM
17,CS(=O)(=O)OCCN(CCOS(C)(=O)=O)c1ccc(/C=N/c2cccc(Cl)c2)cc1,inactive: 13.5 µM
18,C=C1C(=O)OC2/C=C(CO)/C=C\C3OC3(C)CC(OC(=O)/C(C)=C/COC(C)=O)C12 (stereo unspecified),inactive: 14.9 µM
19,Cc1cc2c(c(/C=N/c3ccccc3O)c1)OC1(C=C2)Oc2ccccc2C(=O)N1C (stereo unspecified),inactive: 17.9 µM
20,O=C(COc1ccc(Cl)c(Cl)c1)N(Cc1ccccc1)Cc1ccc[n+](Cc2ccc(Cl)cc2S(=O)(=O)F)c1,inactive: 84.7 µM
21,Cc1cc(C)nc(NS(=O)(=O)c2ccc(Nc3c4ccccc4nc4c(C(=O)NNCCO)cccc34)cc2)n1,inactive: > 100 µM
22,CSC(C1c2ccccc2N(c2ccc(C)cc2)c2[nH]c(=O)n(C)c(=O)c21)S(=O)(=O)c1ccc(C)cc1 (stereo unspecified),inactive: > 100 µM
23,Cc1cccc(N2C(=O)C3c4[nH]c5ccccc5c4C4CCC(C(C)(C)C)CC4C3C2=O)c1 (stereo unspecified),inactive: 12.4 µM

row,SMILES,GI50
1,CCc1cccc(CC)c1NC(=O)C1=C(C)NC(C)=C(C(=O)Nc2c(CC)cccc2CC)C1c1ccc2c(c1)OCO2,inactive: 16.9 µM
2,COc1c(NC(C)=O)cc(C)cc1NC(C)=O,inactive: > 100 µM
3,Cc1ccc(S(=O)(=O)N2CCC(=O)c3cc(Br)ccc32)cc1,inactive: 32.8 µM
4,CS(=O)(=O)C(=Cc1ccccc1Cl)S(C)(=O)=O,inactive: > 100 µM
5,CC(=O)n1nc(-c2ccccc2)n(/N=C/c2ccc([N+](=O)[O-])cc2)c1=O,inactive: 36.1 µM
6,COc1ccc(/C=C2\CN(C)C/C(=C\c3ccc(OC)c(OC)c3OC)C2=O)c(OC)c1OC,active: 0.183 µM
7,Cc1ccccc1NC(=O)C1C(=O)N(c2ccccc2C)C(=O)/C1=N\NC(N)=O (stereo unspecified),inactive: > 100 µM
8,CC[C@]12C=CCN3CC[C@@]4(c5cc(Br)c(OC)cc5N(C)[C@H]4[C@@](O)(C(=O)NC(Cc4c[nH]c5ccccc45)C(=O)OC)[C@@H]1O)[C@@H]32 (stereo partly specified),inactive: 8.05 µM
9,COC(=O)CCC(NC(=S)N/N=C(\C)c1ccco1)C(=O)OC (stereo unspecified),inactive: > 100 µM
10,COC1(Cc2ccccc2)C(=O)c2ccccc2N1C(C)=O (stereo unspecified),inactive: > 100 µM
11,CCOC(=O)/C(=C\NC(C)(C)CO)c1nc2ccccc2[nH]1,inactive: > 100 µM
12,CN(C)CC(O)c1ccc(Cl)c2ccccc12 (stereo unspecified),inactive: > 100 µM
13,OCC12C3C4C5C3C1C5C42 (stereo unspecified),inactive: > 100 µM
14,Cc1ccc(O)c(-c2cc(-c3cccc(Cl)c3)c(C#N)c(N)n2)c1,inactive: 24.6 µM
15,C=C(C)COc1ccc2c(c1)CCC1C2CCC2(C)C(=O)/C(=N/O)CC12 (stereo unspecified),inactive: 7.93 µM
16,O=C(O)CSC(CC1(c2ccc(Cl)cc2)NC(=O)CS1)c1ccc(Cl)cc1 (stereo unspecified),inactive: > 100 µM
17,C(=C\C(Sc1ccccc1)c1ccccc1)/NNC1=NN=C(c2ccccc2)C(c2ccccc2)N1 (stereo unspecified),inactive: 70.5 µM
18,Cc1ccc(C2(O)CS/C(=N\C34CC5CC(CC(C5)C3)C4)N2C(P(=O)(O)O)P(=O)(O)O)cc1 (stereo unspecified),inactive: 69.7 µM
19,CCOC(=O)c1c2cccccc-2nc1Nc1cccc2c(C)ccnc12,inactive: > 10 µM
20,O=C(NCCCl)Nc1cccnc1,inactive: 19.8 µM
21,N=C1CCCC1C(=S)SCCC(N)=O (stereo unspecified),inactive: > 100 µM
22,CS(=O)(=O)N(CCC#N)c1ccc(C=O)cc1,inactive: > 100 µM
23,O=c1cc(-c2ccccc2)oc2cc(OCCCOc3ccc4c(=O)cc(-c5ccccc5)oc4c3)ccc12,inactive: > 100 µM

row,SMILES,GI50
1,O=[N+]([O-])c1cccc(-c2ncc3c(n2)-c2ccccc2C3)c1,inactive: > 100 µM
2,CO[C@@H]1C=C[C@@]23c4cc5c(cc4C(O)N(CC2O)C3C1)OCO5 (stereo partly specified),inactive: 3.7 µM
3,CC1Cn2c(nc3ccccc32)NC1=O (stereo unspecified),inactive: > 100 µM
4,COc1cc2c(cc1Oc1c(Oc3c(O)c(OC)cc4c3C(CC(C)C)N(C)CC4)c(OC)cc3c1C(CC(C)C)N(C)CC3)C(CC(C)C)N(C)CC2 (stereo unspecified),inactive: 1.61 µM
5,COc1ccc(/C=N/NS(=O)(=O)c2ccccc2)cc1,inactive: > 100 µM
6,CC(C)(C)[Si](Nc1ccccc1)(c1ccccc1)c1ccccc1,inactive: 15.3 µM
7,Cc1cn(C(=O)NC23CC4CC(CC(C4)C2)C3)c(=O)[nH]c1=O,inactive: > 100 µM
8,CC(=O)OC1c2ccccc2CC2(OC(C)=O)c3ccccc3C12 (stereo unspecified),inactive: > 100 µM
9,CC1(C)OC2OC(COC(=O)C=[N+]=[N-])C3OC(C)(C)OC3C2O1 (stereo unspecified),inactive: > 100 µM
10,CCOC(=O)C(NC(=O)c1cccc(Cl)c1)(N1CCN(c2cc3c(cc2F)c(=O)c(C(=O)O)cn3CC)CC1)C(F)(F)F (stereo unspecified),inactive: 34.1 µM
11,Cc1cccc(/C=N/NC(=S)N2CCCCCC2)n1,active: < 0.0277 µM
12,CCOC(=O)[C@@H]1C[C@@H]1c1ccc(O)c(O)c1,inactive: > 100 µM
13,CC(C)CCCC(C)[C@H]1CC[C@H]2n3c(nc4ccccc43)CCC[C@]12C (stereo partly specified),inactive: 19.4 µM
14,Cc1cn(CCCCCCOC(=O)NC(CCCNC(N)=O)C(=O)O)c(=O)[nH]c1=O (stereo unspecified),inactive: > 100 µM
15,C=CCC1C2CCC(O[Si](C(C)C)(C(C)C)C(C)C)(C(C(=O)OC)C2)C1O (stereo unspecified),inactive: 41.8 µM
16,COc1ccc(C(=O)C/C(=N/NC(N)=S)C(=O)Nc2ccccc2)cc1,inactive: > 100 µM
17,CC(=O)OCC1OC(n2cnc3c(I)nc(I)nc32)C(OC(C)=O)C1OC(C)=O (stereo unspecified),inactive: 17 µM
18,Cc1cc(C)c(/N=N/c2c(O)c(S(=O)(=O)O)cc3cc(S(=O)(=O)O)ccc23)cc1C,inactive: > 100 µM
19,O=C(CCc1cccc(O)c1)NCCc1cccc(O)c1,inactive: > 100 µM
20,[O-][Cl+3]([O-])([O-])[O-].[O-][Cl+3]([O-])([O-])[O-].c1ccn2c(N3CCCC3)[n+]3c4ccccc4n4c(N5CCCC5)[n+]5ccccc5c4c3c2c1,inactive: > 100 µM
21,COc1cc(/C=C/C(=O)OCCc2ccccc2)ccc1O,inactive: 16.8 µM
22,Cc1ccc2c(c1)[n+]([O-])c(N)n[n+]2[O-],inactive: > 100 µM

#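 Growth conditions: 96-well plates. Treatment: test compound, 48 hours, 5 concentrations. Analysis: linear interpolation between bracketing concentrations; unreached endpoints set to highest concentration. GI50: concentration for 50% inhibition of growth.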 Active and inactive are the calls of the source. Cut-off read from the data, not from the text of the source: active = GI50 up to about 1.1 µM and inactive = higher.
